Data reported in PubChem BioAssay AID588382 (National Center for Advancing Translational Sciences (NCATS), 2011).
The whole screen tested about 1,300 compounds, of which about 150 (12%) were called active. Inconclusive results (about 30%) are left out. Calls follow the shape of the dose curve; as a rule, active = well fitted cell-killing curve with a large enough effect; inconclusive = small, poorly fitted or top-dose-only effect, or effect the other way; inactive = flat fitted curve, though single readings scatter. The entries are a selection whose mix differs from that of the whole data set.

Assay: qHTS of small molecules that selectively kill Giardia lamblia: Hit Validation in HepG2 cytotox;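 also: compound exposure lasted overnight at 37 deg C; nearly all actives have a fitted effect of over 55% in size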;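 as to activity change, negative = cytotoxicity: viability measured as cellular ATP by ATPLite luminescence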
Conditions: cell viability; Potency: HepG2 cytotoxicity; series mostly up to 38.3 µM; activity change, negative = cytotoxicity: at the top concentration
Method in brief: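 HepG2 cells seeded and incubated overnight at 37 deg C, then 23 nL compound added by pintool and incubated overnight at 37 deg C. Viability read as ATP luminescence with ATPLite after 15 min at room temperature.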
% is scaled to controls: 0 for no effect and ±100 for the full control effect; potency is read from the fitted curve at half-maximal effect.

| SMILES | Potency | activity change, negative = cytotoxicity |
| --- | --- | --- |
| CS(=O)(=O)N1CCN(c2ccc(NC(=O)c3ccc([N+](=O)[O-])o3)cc2)CC1 | active: 3.69 µM |  |
| O=c1c2c(-c3ccccc3)csc2ncn1/N=C/c1ccc(O)c([N+](=O)[O-])c1 |  | inactive: 10.5% |
| C[C@@H]1CN([C@@H](C)CO)C(=O)c2cccc(NS(=O)(=O)c3cccs3)c2O[C@H]1CN(C)Cc1ccc(C(F)(F)F)cc1 |  | inactive: 7.74% |
| COc1cc2c(cc1OC)CN(Cc1cc(=O)oc3c(C)c(C)ccc13)CC2 |  | inactive: 10.8% |
| Cn1nc(-c2cccnc2)nc2c(=O)n(C)c(=O)nc1-2 | active: 3.69 µM |  |
| COC(=O)c1cc(NC(=O)c2cc(C(C)(C)C)nn2Cc2ccc(F)cc2)ccc1N1CCOCC1 |  | inactive: 0.619% |
| CN=c1c([N+](=O)[O-])nn(-c2ccc3c(c2)OCCO3)n1O |  | inactive: 19.2% |
| COc1ccccc1NCCC(=O)OCC(=O)NC1CCCCCC1 |  | inactive: 15.5% |
| CCN(C(=O)N(CC)c1ccccc1)c1ccccc1 |  | inactive: 1.3% |
| Cc1cc(C)c2sc(NC(=O)c3ccc([N+](=O)[O-])o3)nc2c1 |  | inactive: -15% |
| Cc1oc2cc([N+](=O)[O-])c(O)c([N+](=O)[O-])c2c1C(=O)c1ccc(Br)cc1 |  | inactive: 1.97% |
| Cc1c(C(=O)O)sc2nc(SCC(=O)Nc3ccc(S(=O)(=O)NC(C)(C)C)cc3)[nH]c(=O)c12 |  | inactive: 7.11% |
| Cc1ccn(-c2ccc(NC(=O)c3cccs3)cc2)n1 | active: 9.27 µM |  |
| CCOC(=O)N=Nc1c2ccccc2c2nc3no[nH]c3nc12 | active: 0.736 µM |  |
| Cc1ccc(CSc2nc3ccncc3[nH]2)cc1 | active: 0.369 µM |  |
| Cc1ccc(-n2c(C)cc(C(=O)COc3cccnc3[N+](=O)[O-])c2C)cc1 |  | inactive: 12.6% |
| COc1ccc(OCc2nnc3n2N=C(c2ccc(OC)cc2)CS3)cc1 |  | inactive: 3.22% |
| [O-][n+]1c2ccccc2c2n1CCN=C2c1ccc(Cl)cc1 |  | inactive: 1.04% |
| CCOC(=O)C1=C(C)NC2=C(C(=O)c3ccccc32)C1c1ccc([N+](=O)[O-])o1 (configuration not stated) |  | inactive: -1.83% |
| O=C(Nc1ncc([N+](=O)[O-])s1)C1CC(=O)N(c2ccc(F)cc2)C1 (configuration not stated) |  | inactive: 1.9% |
| COc1ccc(CNC(=O)CN2C(=O)COc3ccc(S(=O)(=O)N4CCCCC4)cc32)cc1 |  | inactive: 10% |
| O=C(CN1CCN(c2ccccc2)CC1)Nc1scc2c1c(=O)oc1ccccc12 |  | inactive: 23% |
| Cc1cc(C)cc(NC(=O)Cn2c(=O)oc3cc(S(=O)(=O)N4CCC(C)CC4)ccc32)c1 |  | inactive: -15.5% |
| CCN(C(=O)COC(=O)c1cc(S(=O)(=O)N2CCc3ccccc32)ccc1OC)C1CCS(=O)(=O)C1 (configuration not stated) |  | inactive: 18.5% |
| Cc1nc(CS(=O)(=O)c2ccc(Cl)cc2)sc1C(=O)O |  | inactive: 3.81% |
| Fc1cc2[nH]cnc2cc1Cl |  | inactive: 2.06% |

| SMILES | Potency | activity change, negative = cytotoxicity |
| --- | --- | --- |
| CN(C)C(=O)C[n+]1ccc(C(N)=O)cc1 |  | inactive: 4.17% |
| Cc1ccc(N2CC(C(=O)Nc3ncc([N+](=O)[O-])s3)CC2=O)cc1 (configuration not stated) |  | inactive: 11% |
| COc1ccc2nc(C)cc(N/N=C/c3ccc(F)cc3)c2c1 | active: 2.33 µM |  |
| CCC1CCCCN1C(=O)c1ccc([N+](=O)[O-])o1 (configuration not stated) |  | inactive: -13.7% |
| O=C(Nc1nnc(SCC(=O)N2CCOCC2)s1)c1ccccc1 | active: 2.33 µM |  |
| O=[N+]([O-])c1nn(-c2ccc(Cl)cc2)n(O)c1=NCc1ccncc1 |  | inactive: 15.3% |
| CC(=O)CSc1ccc(-c2nc3ccccc3[nH]2)cn1 | active: 14.7 µM |  |
| COc1cc(SC)ccc1C(=O)Nc1nc2ccccc2[nH]1 | active: 2.07 µM |  |
| CCN(CC)CCNC(=O)c1ccc(NC(=O)COc2ccc3c(c2)CCC3)cc1 |  | inactive: 1.8% |
| Cc1ccc(CNC(=O)c2cc(S(=O)(=O)N3CCOCC3)cn2C)cc1 |  | inactive: 1.47% |
| CCN1C(=O)[C@H]2[C@H]3CN=C(SCc4ccccc4)N3[C@@](Cc3ccccc3)(C(=O)OC)[C@H]2C1=O |  | inactive: 14.9% |
| Cc1ncc([N+](=O)[O-])n1CCOC(=O)c1cc(Cl)cc(Cl)c1N |  | inactive: 19.6% |
| CCN(CC)CC(=O)c1c(C)n(C)c2ccc(OC)cc12 |  | inactive: 11% |
| Cc1ccccc1-c1nc2c(=O)n(C)c(=O)nc-2n(C)n1 | active: 3.29 µM |  |
| Cc1nn(CCCC(=O)Nc2c(F)cc(F)cc2Br)c(C)c1[N+](=O)[O-] |  | inactive: 17.7% |
| Cc1ccc(S(=O)(=O)CC(=O)Nc2ccc(F)c(F)c2F)cc1 |  | inactive: 20.6% |
| CC(NC(=O)Cn1cc(Br)c([N+](=O)[O-])n1)c1ccccc1 (configuration not stated) |  | inactive: 19% |
| COc1ccc(N2CCCC2)c(NC(=O)c2ccc([N+](=O)[O-])o2)c1 |  | inactive: 14% |
| CN(Cc1cccc(Cl)c1)C(=O)C1CCC(=O)N(C2CC2)C1 (configuration not stated) |  | inactive: 21.8% |
| Fc1ccc(CN2CC[C@H]3C=CCc4cccc(c43)C2)cc1 |  | inactive: 7% |
| Cc1ccc(NC(=O)c2ccc([N+](=O)[O-])o2)cc1S(=O)(=O)N1CCOCC1 | active: 13.1 µM |  |
| COc1ccc(OCc2cc(C(=O)N(C)Cc3cc(C4CC4)n[nH]3)no2)c(Cl)c1 |  | inactive: 11% |
| COc1cc(C(=O)NC(=S)Nc2ccc(Cl)cn2)cc(OC)c1OC |  | inactive: -8.85% |
| N#C/C(=C/c1ccc(O)c([N+](=O)[O-])c1)C(=O)Nc1ccccc1 |  | inactive: -5.68% |
| CC1CCN(c2c([N+](=O)[O-])nn(-c3ccc4c(c3)OCCO4)[n+]2[O-])CC1 |  | inactive: 0.373% |
| COc1ccc(OC)c(NC(=O)N2CCc3ccccc3C2)c1 |  | inactive: 17.4% |
